Here are results for one molecule from patent publication US8846873B2, “Antibodies directed to GPNMB and uses thereof” (Celldex Therapeutics, Inc., priority 2004, dated 2014).

The target in one test is T1, GPNMB (Homo sapiens, UniProt Q14956).
T1 construct: made in house; host or cells: HEK 293
T1 sequence (Q14956 23-492): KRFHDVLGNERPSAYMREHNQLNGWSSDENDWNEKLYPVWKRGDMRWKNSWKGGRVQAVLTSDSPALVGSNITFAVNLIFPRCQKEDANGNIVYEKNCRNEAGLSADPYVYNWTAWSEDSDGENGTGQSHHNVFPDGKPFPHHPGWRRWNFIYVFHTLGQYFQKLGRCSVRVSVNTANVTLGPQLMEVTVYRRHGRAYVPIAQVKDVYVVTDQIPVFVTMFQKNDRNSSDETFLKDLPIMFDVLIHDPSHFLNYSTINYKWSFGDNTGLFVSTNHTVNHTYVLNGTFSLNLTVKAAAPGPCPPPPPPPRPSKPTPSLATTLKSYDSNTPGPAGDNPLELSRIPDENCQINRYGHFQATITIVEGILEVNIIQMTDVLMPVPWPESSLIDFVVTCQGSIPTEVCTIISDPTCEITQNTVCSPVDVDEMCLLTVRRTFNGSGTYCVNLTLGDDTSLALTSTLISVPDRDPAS
In words: Binning of antibodies (Luminex competitive binding). As to conditions: three bins of six anti-GPNMB antibodies. As for the experimental part:
Certain antibodies, described herein were binned in accordance with the protocol described in U.S. Patent Application Publication No. 20030157730. MxhIgG conjugated beads are prepared for coupling to primary antibody. The volume of supernatant needed is calculated using the following formula: (n+10)×50 μL (where n=total number of samples on plate). Where the concentration is known, 0.5 μg/mL is used. Bead stock is gently vortexed, then diluted in supernatant to a concentration of 2500 of each bead per well or 0.5×10^5/mL and incubated on a shaker in the dark at RT overnight, or 2 hours if at a known concentration of […]. Following aspiration, 50 μL of each bead is added to each well of filter plate, then washed once by adding 100 μL/well wash buffer and aspirating. Antigen and controls are added to filter plate 50 μL/well then covered and allowed to incubate in the dark for 1 hour on shaker. Following a wash step, a secondary unknown antibody is added at 50 μL/well using the same dilution (or concentration if known) as is used for the primary antibody. The plates are then incubated in the dark for 2 hours at RT on shaker followed by a wash step. Next, 50 μL/well biotinylated mxhIgG diluted 1:500 is added and allowed to incubate in the dark for 1 hour on shaker at RT. […]

A further test relates to GPNMB expressing cells. As to the kind of experiment: FACS analysis of binding to GPNMB expressing cells. As for the experimental part: The specificity of anti-GPNMB antibodies to cell membrane-bound GPNMB protein expressed by melanoma cancer cell line, UACC-62 was analyzed by FACS analysis. […] Isotype matched antibody pK16.3 was used as a negative control. Cells were washed twice with PBS (Ca and Mg free), incubated with Versene at 37° C. until cells detached, counted and aliquoted at 1 million cells per assay tube. Cells were then washed twice and resuspended in ice-cold FACS buffer (0.01M HEPES, 0.15M NaCl, 0.1% NaN3 and 4% FBS). Primary antibody at 1 μg/mL was added to the cells. Cells were incubated on ice for 30 min, washed 2-3 times and resuspended in 1 mL of ice-cold FACS buffer. […] After washing 3 times with 1 mL of ice-cold FACS buffer, cells were fixed with 0.5-1 mL of 1% formaldehyde in PBS and analyzed by flow cytometry.
UACC-62 and TK10 cells were plated onto flat bottom 96-well tissue culture plates (Becton Dickinson, Franklin Lakes, N.J., USA). […] On days 8-10, all plates were Giemsa stained and colonies on the plates were counted.
Lymphoma or leukemia cell lines were mixed with methylcellulose base media (R&D Systems, USA) and in various concentrations of unconjugated and Auristatin E-conjugated 1.15.1 antibody before plating onto 6-well tissue culture plates (Becton Dickinson, Franklin Lakes, N.J., USA). […] On days 14-18, colonies on the plates were counted.
A general note: A flow cytometer gives signals particle by particle.

B1: Mab2.3.1: human anti-GPNMB antibody; VH SEQ ID NO: 200, VL SEQ ID NO: 209 (antibody, listed as Homo sapiens, V domains shown)
VH: [about 100 residues not printed]DFFGSGSLLYFDYWGQGTLVTVSSA
VL: DIVMTQTPLSLSVTPGQPASISCKSSQSLLHSGGKTYLYWYLQRPGQPPQLLIYEVSNRFSGVPDRFSGSGSGTDFTLKISRVEAEDVGVYYCMQSIHLPLTFGGGTKVEIKR
With B1, the Bin result with GPNMB is listed as “Bin 2”. For the same molecule, the “binding to GPNMB expressing cells” value in the test on GPNMB expressing cells is listed as “does not bind to GPNMB expressing cells”.
